Out of some 200,000 compounds screened, about 4,500 (2.2%) were called active. The shares of active, inactive and inconclusive entries below differ from those in the screen. The call rests on the fitted dose curve; in most records, active means well fitted inhibition curve with a large enough effect; inconclusive means small, poorly fitted or top-dose-only effect, or effect the other way; inactive means flat fitted curve, though single readings scatter. Potencies beside an inconclusive call are fits to weak or partial responses and may not hold up.
The compounds below were run against Cruzipain (Trypanosoma cruzi) (UniProt P25779) (assay: qHTS Assay for Promiscuous and Specific Inhibitors of Cruzain (without detergent)). Details: purified cruzain, Z-FR-AMC fluorescence, no detergent.
Sequence of UniProt P25779 (P25779 whole entry, looked up): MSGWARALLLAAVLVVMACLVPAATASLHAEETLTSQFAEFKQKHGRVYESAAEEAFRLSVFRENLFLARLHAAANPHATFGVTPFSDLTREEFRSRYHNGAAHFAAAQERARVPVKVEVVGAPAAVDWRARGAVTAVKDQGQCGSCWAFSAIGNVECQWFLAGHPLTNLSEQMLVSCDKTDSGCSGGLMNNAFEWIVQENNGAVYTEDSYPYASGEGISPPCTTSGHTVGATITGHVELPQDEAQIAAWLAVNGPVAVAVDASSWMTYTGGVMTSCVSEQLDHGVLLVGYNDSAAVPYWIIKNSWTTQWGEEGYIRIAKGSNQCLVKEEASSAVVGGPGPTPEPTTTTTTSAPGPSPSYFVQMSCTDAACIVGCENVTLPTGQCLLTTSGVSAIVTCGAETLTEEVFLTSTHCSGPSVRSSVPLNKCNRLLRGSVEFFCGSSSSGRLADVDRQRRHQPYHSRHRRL
In short: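 Detergent-free condition (0.00005% Triton X-100) in acetate buffer pH 5.5 with DTT. 1.5 nM enzyme and compound were pre-mixed 15 min, then 2 uM Z-FR-AMC substrate added; reaction progress from fluorescence change between first and third reads (60 s).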
Further: nearly all actives have a fitted effect of over 40% in size.
Potency means the concentration at half of the fitted maximal effect; tags describe the fitted curve by direction and shape.
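Wherever max response, negative = inhibition is given: plate controls were enzyme without inhibitor for no effect and buffer without enzyme for full effect.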

SMILES | Potency | max response, negative = inhibition
CCOc1ccccc1NC(=O)c1sc2nc(C)cc(C)c2c1N | inconclusive: 1.58 µM [inhibitor, single point] | 
Cc1nn2cc(-c3ccc(Cl)cc3)nc2s1 | inconclusive: 39.8 µM [inhibitor, single point] | 
O=C(Nc1cc(N2CCOCC2)ncn1)Nc1cccc2ccccc12 | inconclusive: 31.6 µM [activator, single point] | 
CCOC(=O)C1CCN(S(=O)(=O)c2cc(Br)cc3c2N(C(=O)C2CC2)CC3)CC1 | inconclusive: 39.8 µM [activator, single point] | 
COc1ccc(-c2c(C)nn3c(N4CCC5(CC4)OCCO5)cc(C)nc23)cc1OC | inconclusive: 31.6 µM [activator, single point] | 
COc1ccccc1CNC(=O)c1c(-c2ccccc2)nn(-c2ccccc2)c1C | inconclusive: 7.94 µM [inhibitor, single point] | 
COc1ccccc1CNC(=O)C1CCN(S(=O)(=O)c2c(C)noc2/C=C/c2c(C)cc(C)cc2C)CC1 |  | inactive: 4.81%
COc1ccc(Br)cc1/C=C/C(=O)Nc1ccc(C)cc1 | inconclusive: 31.6 µM [inhibitor, single point] | 
Cn1cccc1CC(=O)N/N=C\c1c2ccccc2cc2ccccc12 | inconclusive: 39.8 µM [inhibitor, single point] | 
CCCN1C(=O)C(O)(CC(=O)c2ccc(OC)c(OC)c2)c2ccccc21 (stereo not given) | inconclusive: 20 µM [activator, partial curve] | 
C/C(Cl)=C/Cn1c(SCC(C)C)nc2c1c(=O)[nH]c(=O)n2C | inconclusive: 0.316 µM [inhibitor, full curve, poor fit] | 
CCc1ccccc1N(C)C(=O)CCc1nc(-c2ccc(C)cc2)no1 | inconclusive: 15.8 µM [activator, partial curve] | 
CCOC(=O)C1CCCN(S(=O)(=O)c2ccc(N3CCCCS3(=O)=O)cc2)C1 (stereo not given) |  | inactive: 4.1%
CC1CCc2noc(NC(=O)c3ccccc3[N+](=O)[O-])c2C1 (stereo not given) |  | inactive: -17.2%
CCN(C(=O)Cn1ncc2c(=O)oc3ccc(C)cc3c21)c1cc(OC)ccc1OC |  | inactive: 7.56%
COc1ccc(C2C=C(c3ccc(Cl)cc3)Nc3nc(NC(C)=O)nn32)cc1 (stereo not given) | inconclusive: 31.6 µM [activator, single point] | 
O=C(CCC1CCCC1)N1CCc2c([nH]c3ccccc23)C1c1ccc(Cl)cc1 (stereo not given) | active: 7.94 µM | 
COc1ccc(CCNC(=O)CCC2COc3ccccc3O2)cc1OC (stereo not given) | inconclusive: 25.1 µM [activator, single point] | 
O=P(O)(O)OP(=O)(O)O |  | inactive: 5.95%
c1ccc2c(Nc3nc4c(s3)CCCC4)cccc2c1 | inconclusive: 31.6 µM [inhibitor, single point] | 
O=C/C(=C\Nc1ccc(Cl)cn1)c1nc2ccccc2o1 | inconclusive: 31.6 µM [inhibitor, single point] | 
Cc1ccc(-n2nnc(-c3nsc(NC(=O)c4ccccc4)n3)c2C)cc1 | inconclusive: 39.8 µM [inhibitor, single point] | 

SMILES | Potency | max response, negative = inhibition
COC(=O)[C@@]1(Cc2ccccc2)[C@H]2c3cc(C(=O)N4CCCC4)n(Cc4ccc(S(C)(=O)=O)cc4)c3C[C@H]2CN1C(=O)c1ccccc1 | inconclusive: 12.6 µM [activator, partial curve] | 
COc1cccc(-c2nc(N3CCN(c4ccccc4)CC3)c3ccccc3n2)c1O | active: 10 µM | 
CSc1nc(SC)c2c3c(oc2n1)COC(C)(C)C3 | inconclusive: 25.1 µM [activator, single point] | 
CCOC(=O)c1cc(-c2ccc(C)cc2)n(CCC(=O)Nc2nc3c(C)cccc3s2)c1C | inconclusive: 31.6 µM [inhibitor, single point] | 
CCC(CC)C1=NN2C(=N)/C(=C\c3cc(C)n(-c4cccc(C)c4)c3C)C(=O)N=C2S1 | active: 25.1 µM | 
COc1cccc(NC(=O)CSc2nnc(COc3ccc(Cl)cc3)o2)c1 | inconclusive: 39.8 µM [activator, single point] | 
CCOC(=O)N1CCC(NC(=O)c2cc3c(-c4cccc(OC)c4)nn(C)c3s2)CC1 | inconclusive: 39.8 µM [activator, single point] | 
Cc1cccc2cc3c(N)c(C(=O)Nc4ccc(N5CCOCC5)cc4)sc3nc12 | inconclusive: 39.8 µM [activator, single point] | 
Cc1ccc(NC2CC(=O)N(c3ccc(N4CCCCC4)cc3)C2=O)cc1 (stereo not given) | active: 7.94 µM | 
CCN(CC)C(=S)SCC(=O)Nc1nc(-c2ccccc2)c(-c2ccccc2)o1 | active: 31.6 µM | 
COc1ccccc1N1CCN(C(=O)C2CCN(S(=O)(=O)c3c(C)noc3/C=C/c3ccc(C)cc3)CC2)CC1 | inconclusive: 39.8 µM [activator, single point] | 
CC(C)(C)NC(=O)CN(C(=O)CSc1nnc(COc2ccccc2)o1)c1cccc(F)c1 | inconclusive: 39.8 µM [activator, single point] | 
COc1ccc(NC(=O)CN2C(=O)C(c3ccc(C(C)(C)C)cc3)=NC2(C)C)cc1Cl |  | inactive: 1.16%
COC(=O)c1ccc(NC(=O)CSc2nnc(COc3ccc4c(c3)CCCC4)o2)cc1 | active: 10 µM | 
CCN(CC)c1ccc(/C=C2\CCC(/C=C(\C#N)C(=O)Nc3ccccc3F)=C2N2CCOCC2)cc1 | inconclusive: 3.16 µM [inhibitor, partial curve] | 
CN1CCC(=NNC(=O)CN(c2ccc(Oc3ccccc3)cc2)S(C)(=O)=O)CC1 |  | inactive: -4.08%
CNc1oc(-c2ccc(C)cc2)nc1P(=O)(c1ccccc1)c1ccccc1 |  | inactive: -27.8%
O=C(CC(NC(=O)c1ccccc1)c1ccccc1)Nc1cccc2ccccc12 (stereo not given) | active: 25.1 µM | 
O=C(c1ccc2c(c1)N(Cc1ccccc1)C(=O)c1ccccc1S2(=O)=O)N1CCCC1 | inconclusive: 39.8 µM [activator, single point] | 
CC(C)(C)C(=O)NC(=S)NNC(=O)c1sc2ccccc2c1Cl |  | inactive: -10.1%
CCN(CC)CC[n+]1ccc2c(C)c3[nH]c4ccccc4c3c(C)c2c1 |  | inactive: -11.8%
CCc1nnc(NC(=O)c2ccc(S(=O)(=O)N(CC)Cc3ccccc3)cc2)o1 | inconclusive: 31.6 µM [activator, partial curve] | 

SMILES | Potency | max response, negative = inhibition
c1cc2c(cc1C(N1CCNCC1)N1CCNCC1)OCO2 |  | inactive: -1.99%
Cc1ccc(C(=O)N/N=C/c2cc(C)n(-c3ccc(Br)cc3)c2C)cc1[N+](=O)[O-] | active: 20 µM | 
CCCCNC(=O)NC1(C(F)(F)F)Oc2ccccc2O1 | inconclusive: 39.8 µM [inhibitor, single point] | 
O=C(CSc1nc(-c2cccc(Cl)c2)nc2cc(=O)[nH]n12)Nc1ccccc1 |  | inactive: -7.23%
Cc1cccc(Cn2ccn(Cc3ccc(Cl)cc3)c(=O)c2=O)c1 | inconclusive: 39.8 µM [activator, single point] | 
CCc1ccc(Nc2nnc(SCC(=O)N(C)CC(=O)Nc3ccccc3CC)s2)cc1 | inconclusive: 25.1 µM [activator, single point] | 
CCOC(=O)c1ccccc1NC(=O)NC(C)c1c(-n2cccc2)sc(C)c1C (stereo not given) |  | inactive: -12.2%
O=C(Nc1nc2ccc(Cl)cc2s1)[C@@H]1CCCN1C(=O)c1cccs1 | inconclusive: 31.6 µM [inhibitor, single point] | 
Cc1csc(Sc2ccc(C(=O)OCC(=O)Nc3ccc(F)cc3[N+](=O)[O-])cc2[N+](=O)[O-])n1 | inconclusive: 39.8 µM [inhibitor, single point] | 
CC1(C)CC(=O)C2=C(C1)NC(=O)C21C(C(=O)OC(C)(C)C)=C(N)Oc2ccc(Br)cc21 (stereo not given) | inconclusive: 31.6 µM [activator, single point] | 
Cc1[nH]nc2ncc(C(=O)c3ccccc3O)cc12 | inconclusive: 25.1 µM [inhibitor, single point] | 
CCCCC/C=C\C/C=C\CCCCCCCCCC(=O)NCCCC(=O)O |  | inactive: -13.2%
CC(C(=O)NCc1ccccc1Cl)n1ccc2cc(S(=O)(=O)N3CCCCC3)ccc21 (stereo not given) | inconclusive: 25.1 µM [inhibitor, single point] | 
CC1=C2[C@@H]([C@H](C)CC[C@H]2/C=C(\C)C(=O)O)[C@H](O)C1 |  | inactive: -1.7%
COC(=O)[C@@]1(Cc2ccc(OC)cc2)[C@@H]2[C@@H](CC(=O)[C@H]2CC(=O)C(=O)N(C)C)CN1C(=O)c1ccccc1 | inconclusive: 39.8 µM [activator, single point] | 
Cc1ccc(C2c3c(-c4cc(C)ccc4O)n[nH]c3C(=O)N2Cc2ccco2)cc1 (stereo not given) | inconclusive: 31.6 µM [inhibitor, single point] | 
Cc1ccc(NC(=O)CSc2n[nH]c(C)c2[N+](=O)[O-])cc1C | inconclusive: 31.6 µM [inhibitor, single point] | 
Oc1ccc(Nc2nc3ccccc3n3cnnc23)cc1 |  | inactive: -8.12%
CCOC(=O)CNC(=O)CSc1nnc(Cn2c(=O)sc3ccccc32)n1-c1ccccc1C | inconclusive: 31.6 µM [activator, single point] | 
CSc1nnc(-c2cc3c(s2)-c2ccccc2CC3)o1 | inconclusive: 25.1 µM [activator, partial curve] | 
COc1cccc2sc(N3CCN(c4nc5ccccc5s4)CC3)nc12 | inconclusive: 39.8 µM [inhibitor, single point] | 
